Data taken from paper PMC4336329 (PLoS ONE, 2015).
The whole screen tested about 310,000 compounds, of which about 14,000 (4.5%) showed an effect of 50% or more. The effect is printed as a negative number. This is one part of the list.

Target: human ether-à-go-go-related gene (hERG) potassium channel (human, UniProt Q12809)
Experiment: primary screen, population patch clamp on CHO cells stably expressing hERG
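Further: peak tail current of the secondary pulse compared with the same well before compound.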

Sequence of human ether-à-go-go-related gene (hERG) potassium channel (Q12809 whole entry, looked up): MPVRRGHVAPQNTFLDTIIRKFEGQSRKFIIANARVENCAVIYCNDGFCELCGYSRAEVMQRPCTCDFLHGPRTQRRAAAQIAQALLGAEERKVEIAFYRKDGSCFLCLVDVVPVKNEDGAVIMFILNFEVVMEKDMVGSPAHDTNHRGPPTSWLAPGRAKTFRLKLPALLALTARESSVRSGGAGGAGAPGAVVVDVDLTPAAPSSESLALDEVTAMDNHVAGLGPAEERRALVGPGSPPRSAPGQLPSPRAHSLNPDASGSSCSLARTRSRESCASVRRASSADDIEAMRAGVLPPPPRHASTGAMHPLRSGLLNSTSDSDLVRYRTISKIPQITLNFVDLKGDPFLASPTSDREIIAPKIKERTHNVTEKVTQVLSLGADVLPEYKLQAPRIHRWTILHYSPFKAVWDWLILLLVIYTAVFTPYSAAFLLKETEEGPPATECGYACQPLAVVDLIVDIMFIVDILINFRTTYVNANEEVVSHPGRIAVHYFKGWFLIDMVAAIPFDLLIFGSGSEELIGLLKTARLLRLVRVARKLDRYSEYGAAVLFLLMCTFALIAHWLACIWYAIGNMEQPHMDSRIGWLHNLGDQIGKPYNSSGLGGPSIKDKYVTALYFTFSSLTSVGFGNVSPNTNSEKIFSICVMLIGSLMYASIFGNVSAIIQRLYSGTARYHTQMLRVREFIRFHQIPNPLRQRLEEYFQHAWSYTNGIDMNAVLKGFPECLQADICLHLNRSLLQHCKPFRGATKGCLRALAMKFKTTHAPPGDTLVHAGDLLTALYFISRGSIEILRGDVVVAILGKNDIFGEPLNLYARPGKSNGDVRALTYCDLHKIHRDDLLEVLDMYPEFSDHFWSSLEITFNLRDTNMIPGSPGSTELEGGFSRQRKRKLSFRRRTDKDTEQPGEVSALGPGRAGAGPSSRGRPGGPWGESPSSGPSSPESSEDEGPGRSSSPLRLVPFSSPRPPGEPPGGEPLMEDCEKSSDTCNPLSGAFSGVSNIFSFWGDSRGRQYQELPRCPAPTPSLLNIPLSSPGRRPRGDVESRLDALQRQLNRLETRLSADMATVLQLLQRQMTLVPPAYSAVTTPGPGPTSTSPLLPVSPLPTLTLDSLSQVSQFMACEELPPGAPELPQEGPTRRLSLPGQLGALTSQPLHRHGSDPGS

In order of rising “hERG current change (%, negative = inhibition) at 10uM” value:
1. CCOC(=O)C1CCN(C2=NC(=O)/C(=C/c3ccc(Cl)cc3)S2)CC1  -64.8%
2. CC1(C)Cc2cccc(OCC(=O)N3CCN(c4ccccc4Cl)CC3)c2O1  -64.3%
3. C=CCN1CCN(C(=O)c2cc3c(s2)CCC(CC)C3)CC1 (stereo not shown)  -57.3%
4. S=C1SCN(Cc2cccnc2)CN1Cc1ccccc1  -54.7%
5. CN(C)Cc1c(O)ccc2occ(C(=O)c3ccccc3)c12  -52.8%
6. Cc1cccc(C)c1NC(=O)CCCSc1nnc(-c2ccc(F)cc2)n1-c1ccccc1  -45.3%
7. CCN(CC)CCN(C)Cc1ccc(Br)cc1  -43.2%
8. O=C(Nc1c(F)cc(F)cc1F)c1cccn(Cc2ccccc2)c1=O  -39.7%
9. COCCCn1c(SCc2nnc(-c3ccccc3)o2)nc2sc3c(c2c1=O)CCC3  -31%
10. O=C(CCNS(=O)(=O)c1ccccc1Cl)N1CCN(c2ccccn2)CC1  -27.9%
11. O=C(NCCc1ccccn1)c1cccc(S(=O)(=O)N2CCCCCC2)c1  -27%
12. CCC(c1nnnn1Cc1ccco1)N(CCc1ccccc1)Cc1cc2ccc(OC)cc2[nH]c1=O (stereo not shown)  -24.8%
13. Cn1cnc2cc(NC(=O)c3ccc(Cl)cc3)ccc21  -18.9%
14. O=C(NCc1ccco1)[C@@H]1CCCN1C(=O)c1cccs1  -16.3%
15. CCOc1ccccc1NC(=O)C1CCN(S(=O)(=O)c2cccc3cccnc23)CC1  -15.3%
16. CC(C)C(=O)Nc1ccccc1N1CCN(C(=O)c2ccccc2)CC1  -14.2%
17. Cc1cc(Cl)cc(C)c1OCCn1ccnc1.Cl  -13.4%
18. CCOC(=O)C1=C(C)NC(C)=C(C(=O)OCC)C1c1ccc([N+](=O)[O-])s1  -12.9%
19. CCc1ccc2[nH]c(=O)c(C(c3nnnn3CCOC)N3CCN(c4ccccc4)CC3)cc2c1 (stereo not shown)  -11.6%
20. CS(=O)(=O)N(CC(=O)Nc1ccc(Br)cc1)C1CCCCC1  -10.1%
21. O=C1COc2ccc(C(=O)CSc3nnc(Cc4cccs4)n3-c3ccc(Cl)cc3)cc2N1  -9.62%
22. Cc1cc(C(=O)N/N=C/c2c[nH]c3ccccc23)cs1  -8.33%
23. CCN(CCCNC(=O)CN(C)S(=O)(=O)c1ccc2c(c1)CCC(=O)N2)c1cccc(C)c1  -7.06%
24. CCC12CN3CCN(CC(C3)C1O)C2 (stereo not shown)  -6.76%
25. O=C1CCCN1CCCNC(=S)Nc1ccccc1  -5.9%
26. COc1ccc(NC(=O)CN(C)C(=O)c2cc(CN3C(=O)c4ccccc4C3=O)ccc2OC)cc1  -5%
27. COC/C=C/C1=CC2=CC(=O)C(C)(OC(=O)c3cnc4ccccc4n3)C(=O)C2=CN1c1ccc(OC)cc1 (stereo not shown)  -4.95%
28. COc1ccc2cc(C(C)c3nc4ccccc4c(=O)n3N)ccc2c1 (stereo not shown)  -4.49%
29. C=CCNC(=S)NNC(=O)CSc1nc2ccccc2s1  -4.31%
30. O=C(CN1C(=O)c2cccc3cccc1c23)N1CCc2ccccc2C1  -3.96%
31. O=C1[C@H]2[C@H](C=CC[C@H]2C(=O)N2CCOCC2)CCN1Cc1ccc(Cl)c(Cl)c1  -3.89%
32. CCc1nnc(-n2nc(C)cc2-c2ccccc2)n1N.Cl  -3.8%
33. COc1ccc(C(O)P(=O)(OCC(C)C)c2ccc(N(C)C)cc2)c(OC)c1 (stereo not shown)  -3.56%
34. Cc1nn(C2CCCCC2)c(N)c1-c1ccccc1  -3.53%
35. O=C(c1ccccc1Br)N1CCCC(c2nc(-c3cccs3)no2)C1 (stereo not shown)  -3.22%
36. CCCOc1ccc(N2C(=O)CC(N(Cc3ccc(S(N)(=O)=O)cc3)C(=O)CC)C2=O)cc1 (stereo not shown)  -2.71%
37. CCN(CC(=O)NCc1cccs1)C(=O)C1CC(=O)N(c2ccc(OC)cc2OC)C1 (stereo not shown)  -2.35%
38. CN1C2=NCCN2C(=O)c2ccccc21  -2.32%
39. O=C(C1=C(O)C(=O)N(CCN2CCOCC2)C1c1ccccc1)c1cccs1 (stereo not shown)  -2.27%
40. Cc1[nH]c2ccccc2c1C(C[N+](=O)[O-])c1ccco1 (stereo not shown)  -2%
41. COC(=O)Nc1ccc(S(=O)(=O)NCCCCCC(=O)O)cc1  -1.56%
42. Fc1ccccc1-c1nc2ncccc2o1  -1.44%
43. Cn1nnnc1SCC(=O)Nc1ccccc1[N+](=O)[O-]  -1.11%
44. Cc1nc(N2CCOCC2)nc(OCCN2CCOCC2)c1[N+](=O)[O-]  -0.852%
45. COc1cc(N)c(Cl)cc1C(=O)OC(C)C(=O)Nc1cccc(S(=O)(=O)N2CCOCC2)c1 (stereo not shown)  -0.241%
46. CC(Oc1ccc2ccccc2c1)C(=O)N/N=C/c1cccnc1 (stereo not shown)  -0.134%
47. Cc1cccc(NC(=O)CN2C(=O)N/C(=C/c3cc(C)n(C(C)C)c3C)C2=O)c1  0.258%
48. CN(C)c1cccc(NC(=O)CCc2ccccc2)c1  0.44%
49. O=C1NC(=O)C(c2cn(-c3ccccc3)nc2-c2ccc(F)cc2)N1 (stereo not shown)  1.82%
50. CSCCC(NC(=O)c1ccc([N+](=O)[O-])cc1Cl)C(=O)OCC(=O)NC(=O)CN1CCCC1=O (stereo not shown)  1.94%
51. C=CCC(NCc1ccccc1)c1ccccc1 (stereo not shown)  1.95%
52. Cc1cc(=O)n2[nH]cnc2n1  2.28%
53. CCc1ccc(-c2ccc(SCc3ccccn3)nn2)cc1  3.91%
54. COc1cccc(N2CC(NC(=O)c3ccc4ccccc4c3)CC2=O)c1 (stereo not shown)  4.39%
55. COc1cc(OC)cc(C(=O)Nc2c(F)cccc2F)c1  4.42%
56. COC(=O)c1cc(S(=O)(=O)Nc2ccsc2C(=O)OC)oc1C  4.86%
57. Cc1ccc2nc(SCCC(=O)O)cc(C)c2c1  4.9%
58. O=C(NC1CCCCC1)C(c1ccco1)N(C(=O)c1csnn1)c1cccc(Cl)c1 (stereo not shown)  4.93%
59. CNC(=O)c1cc(S(=O)(=O)N(C)C)ccc1Cl  5.59%
60. Cc1cc(NC2CCCC2)n2nc(C)c(-c3ccccc3)c2n1  6.31%
61. Cc1oc2c(c1C(=O)NC(Cc1c[nH]c3ccccc13)C(=O)O)CCCC2 (stereo not shown)  6.5%
62. CCCc1nn2c(=O)cc(CSCC(=O)Nc3nnc(C(C)C)s3)nc2s1  8.15%
63. CCCc1nc2ccccc2c(=O)n1NC(=O)c1c(O)c2ccccc2[nH]c1=O  8.41%
64. CC(=O)Nc1ccc(N=Nc2ccccc2)cc1  8.44%
65. O=c1cc(-c2ccccc2)nc(SCc2ccccc2)[nH]1  8.53%
66. O=C(CCCN1C(=O)c2ccccc2C1=O)N1CCCCC1  8.56%
67. CC(CCc1ccccc1)NC(=O)Cc1ccc(Br)cc1 (stereo not shown)  8.87%
68. O=C(O)CCN1C(=O)/C(=C\c2cccc(OCc3ccccc3)c2)SC1=S  10.6%
69. COc1ccc(NC(=O)c2cc(C)nn2-c2ccccc2)cc1  11%
70. COc1ccc(/C=N/NC(=O)CSc2n[nH]c(=O)[nH]c2=O)cc1  11.5%
71. CCC(C(=O)OCC(=O)NC(=O)c1ccccc1)c1ccccc1 (stereo not shown)  11.7%
72. O=C(C1CCCO1)N1CCN(c2ccccn2)CC1 (stereo not shown)  12.1%
73. Cc1ccc(N(C)S(=O)(=O)c2ccc3c(c2)CC(C)N3C(=O)C2CC2)cc1 (stereo not shown)  13.8%
74. CCCCC(=O)Nc1ccc(Br)cn1  14%
75. CCOc1ccc2[nH]c3nc(SCC(=O)NC4CCCC4)nnc3c2c1  14.1%
76. CCCn1nnnc1-c1ccc(Cl)cc1  14.4%
77. CCC(=O)N1CCc2cc(S(=O)(=O)CCC(=O)Nc3ccc(CC)cc3)ccc21  14.9%
78. O=C(c1ccncc1)N1CCN(S(=O)(=O)c2ccc(F)cc2)CC1  15.2%
79. COc1ccccc1C(=O)C1CCCN(C(=O)c2ccco2)C1 (stereo not shown)  15.8%
80. Cc1nc2ccccc2n1Cc1ccccc1  15.8%
81. COc1ccc2cc(-c3ccn[nH]3)ccc2c1  17.6%
82. CCCCc1c(O)nc(SCC(=O)c2ccccc2)n(-c2ccccc2C)c1=O  19.8%
83. CCc1ccccc1N(CC(=O)NC(C)c1ccccc1)S(C)(=O)=O (stereo not shown)  20.5%
84. CCc1n(CC(O)COC2CCCCC2)c2ccccc2[n+]1C.[I-] (stereo not shown)  21.4%
85. O=C(NCCCO)C(=O)Nc1cc2c3c(c1)CCC(=O)N3CCC2  22.6%
86. Cc1ccc(C)c(-n2c(-c3cccnc3)n[nH]c2=S)c1  23%
87. COCCC(=O)N1CCC(Oc2ccc(C(=O)N3CCC[C@H]3CO)cc2)CC1  23%
88. Clc1ccc(Cl)c(-c2nc(-c3ccncc3)no2)c1  26.5%
89. O=C(COC(=O)/C=C/c1ccco1)NCc1ccccc1  28.1%
90. Cc1cccc(NC(=O)CSc2nc(NS(=O)(=O)c3ccccc3)cc(=O)[nH]2)c1  28.4%
91. CS(=O)(=O)c1ccc(NC(=O)CCCc2nc3ccccc3c(=O)[nH]2)cc1  37.7%
